Data reported in the supplement of paper PMC10126150.
Sequences with one replicate were seen in a single cluster, so their values are uncertain.

system: ATP; experiment: switch fluorescence ratio, 500 uM ATP over buffer (Cy3 cluster intensity, sum of 5 cycles each) (fold (ratio)); higher = stronger signal-on switching upon ATP binding; sequences stand for … in TCGTCGGCAGCGTCAGATGTGTATAAGAGACAGTTTTTTTTTTTTTTTTTTTTTTTTT…TC; conditions: aptamer strand: ATP DNA aptamer (quencher-CACCTGGGGGAGTATTGCGGAGGAAGG + anchor), 100 nM annealed; ATP concentration: 500 uM; one replicate
How it was run: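 Between each of five buffer/ATP cycles, the flow-cell was stripped with NaOH and re-annealed. Each cycle imaged Cy3-labelled switching-strand clusters, annealed to 100 nM quencher-labelled ATP aptamer on a modified Illumina MiSeq flow-cell, first in selection buffer and then after 15 min with 500 uM ATP at 22 °C. The fluorescence ratio is summed target-cycle over summed buffer-cycle Cy3 intensity per cluster, averaged per switch-domain sequence, with clusters outside 100-1000 RFU excluded.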
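Note: ATP exposure 15 min at 22 °C before imaging.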

Sequence	switch fluorescence ratio
CAGTATCTTG	1.01
CAGTCAGCGT	1.24
CAGTCATCTG	0.991
CAGTCGCTTT	1.04
CAGTCTGGGC	1
CAGTCTGGGT	1.01
CAGTGCATCC	1.06
CAGTGCATGA	0.981
CAGTGCCGGT	0.999
CAGTGGAAGT	0.983
CAGTGGTTAC	1
CAGTGTCCCC	0.975
CAGTGTGCTA	1.04
CAGTGTTCGG	0.981
CAGTTAGGT	1.05
CAGTTCAAA	0.967
CAGTTCGTT	0.966
CAGTTCTTTC	1
CAGTTGAATC	0.98
CAGTTGCAGC	1.03
CAGTTGCATC	1.02
CAGTTGCTGG	0.983
CAGTTGGCTT	0.979
CAGTTGTCGT	0.95
CAGTTGTGCG	1
CAGTTTCTTT	0.98

Sequence	switch fluorescence ratio
CAGTTTGCCA	1.02
CATAAAAAGC	0.991
CATAAAACCA	1.04
CATAAAGATT	0.988
CATAAATAGG	1
CATAACATCC	0.995
CATAACTTGA	0.974
CATAAGAAC	1
CATAAGTTTG	0.968
CATAATACGA	1.19
CATACAACTT	1.05
CATACCTTGT	1.01
CATACGGAGA	1.07
CATACTCTCG	1.07
CATAGAAGTC	0.988
CATAGACA	1.07
CATAGACAGG	1.05
CATAGAGGGG	0.991
CATAGATCTA	0.977
CATAGCAACT	1.78
CATAGGATAA	1.02
CATAGGCATG	0.988
CATAGGGAAA	0.961
CATAGGGGTG	1.03
CATAGGTAGC	1.02
CATAGGTCAA	1.02

Sequence	switch fluorescence ratio
CATAGGTTT	0.989
CATAGTCTA	1.02
CATAGTGCAT	0.999
CATAGTTTCT	1.02
CATATAAGGC	0.865
CATATACCCG	0.974
CATATCAGTT	0.999
CATATGGTA	1.06
CATATGTCAC	0.993
CATCAAAGGT	0.985
CATCAACGG	1.03
CATCAAGAGA	1.04
CATCACAATC	3.05
CATCACAGCG	0.998
CATCACCAGC	1.08
CATCACTTT	1.06
CATCAGACTC	1.01
CATCATTTTT	1.03
CATCCAATA	1.7
CATCCCATGG	1.3
CATCCCCGCG	1.89
CATCCGATAA	6.68
CATCGAATGT	1
CATCGAGGGA	0.978
CATCGCTCGG	1.01
CATCGTCTGC	1.02

Sequence	switch fluorescence ratio
CATCGTTTTA	1.05
CATCTATATG	1.01
CATCTCAGA	1.07
CATCTGCATC	2.13
CATCTGCGAG	2.15
CATCTGCGCT	1.38
CATCTTACTA	0.991
CATCTTAGGC	1.01
CATCTTGCAC	1.37
CATCTTGGCG	0.962
CATGAAACCT	1.15
CATGAACTTA	1.03
CATGACAGTA	1.12
CATGACCCCT	1.08
CATGACTTCC	1.96
CATGAGCTTC	1.06
CATGATTATA	0.988
CATGATTGTC	1.07
CATGCAGAAA	1.01
CATGCGTGTG	1.02
CATGCTCTCG	1.01
CATGCTTAAT	1
CATGCTTGGA	0.971
CATGGAGATA	1.02
CATGGAGCGC	1.04
CATGGATGGA	0.949

Sequence	switch fluorescence ratio
CATGGGGTCG	0.983
CATGGTAGAT	1.01
CATGGTAGGT	1.02
CATGGTGACG	0.955
CATGGTTG	1.02
CATGTATCGG	1.02
CATGTCTCGT	0.999
CATGTCTTTT	0.981
CATGTGAAAA	1.05
CATGTGCAA	4.23
CATGTGGCCC	0.995
CATGTTACTG	0.907
CATGTTATCT	1.02
CATTAAAAGC	1.04
CATTAAGAGT	1.03
CATTAAGGCC	1
CATTACATGA	0.974
CATTAGAAAA	0.999
CATTATTTAA	0.977
CATTATTTCG	0.981
CATTCAGGTA	1
CATTCAGTTA	0.998
CATTCAGTTG	0.998
CATTCCACTG	1.05
CATTCCAGG	1.38
CATTCCCCTG	1.04

Sequence	switch fluorescence ratio
CATTCCGGTA	1.28
CATTCGGCTG	1.04
CATTCTAAGG	1.01
CATTCTCGTA	1.04
CATTCTGTTA	0.988
CATTCTTACT	0.991
CATTGAAGGC	0.986
CATTGACGTG	0.991
CATTGCCGGT	1.03
CATTGCGTTA	1.04
CATTGGCAAC	1.33
CATTGTCTGA	0.959
CATTGTGTCA	0.971
CATTTAAAGG	0.969
CATTTAAATT	0.999
CATTTACTTT	1.03
CATTTAGGAC	0.982
CATTTATA	0.977
CATTTCAAAG	0.99
CATTTGAATG	0.95
CATTTTAAGA	1.04
CATTTTAGTC	1.06
CATTTTCATG	0.98
CATTTTCGTT	0.956
CATTTTGAAT	1.03
CATTTTGCAG	1

Sequence	switch fluorescence ratio
CCAAAACTTG	1.02
CCAAAAGCGG	1.04
CCAAAAGTAG	1.08
CCAAACAGC	1.07
CCAAACGAGG	0.98
CCAAAGATG	0.997
CCAAAGGAGA	0.952
CCAAAGGCGG	1.04
CCAAAGTTTA	1.04
CCAAATGTAG	0.989
CCAACATAGG	1.02
CCAACCGGAT	1.05
CCAACCTGTT	1.03
CCAACGTCCA	1.36
CCAACGTTAT	1.86
CCAACTAATC	1.13
CCAACTTAA	1.04
CCAACTTATG	1
CCAAGAGAGC	1.02
CCAAGATGTT	0.968
CCAAGCAAAT	4.44
CCAAGCAGCG	1.22
CCAAGGAAGC	1.14
CCAAGGCTT	1.13
CCAAGTGAGC	1.05
CCAAGTGTGT	1.03

Sequence	switch fluorescence ratio
CCAATACTAT	1.31
CCAATCAACC	1.03
CCAATCAACG	1.07
CCAATGCAAT	5.79
CCAATGGATT	1.03
CCAATTATTC	1
CCAATTGTTG	0.959
CCACAAAGCT	1.31
CCACAAGGGA	1.11
CCACAGGTCG	2.1
CCACAGTTGA	1.24
CCACATAATC	1.22
CCACATCGCA	1.68
CCACATGTTG	1.02
CCACATTGCG	1.01
CCACCAGGCT	1.88
CCACCAGGTA	1.23
CCACCATCCG	1.24
CCACCCCCGT	1.65
